Reference: the supplement of paper PMC10338343
± gives the standard deviation. Over roughly 3,700 sequences, “pre-steady-state target cleavage rate” has its median near 0.02; the highest 2% begin near 0.23. The list shows a part of the results, in another mix than the full data.

Each sequence was assayed on MILI (PIWIL2) piRISC loaded with Kctd7 piRNA (26 nt) (assay: pre-steady-state target cleavage rate (min^-1); MIWI and MILI are mouse PIWI proteins and EfPiwi is from a freshwater sponge; tags in brackets are library labels; higher = faster piRNA-guided slicing of the target). Settings: guide: Kctd7 piRNA 5'p-UGUUAAUCUCUCAGAGAAGGUGACAG; auxiliary factor: 500 nM mouse GTSF1.
Outline: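 With or without 500 nM GTSF1 partner protein, 1 nM active affinity-purified piRISC carrying one synthetic guide was mixed with 0.1 nM transcribed, DNA-blocked target RNA library in HEPES–potassium acetate buffer at 33 °C for 0–8 or 0–960 min. Uncleaved targets were sequenced and normalised to depth and to weakly complementary targets, three trials were pooled, and k3 was capped at 0.0001 min^-1. The pre-steady-state cleavage rate came from a burst-and-steady-state fit.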

Row | Sequence | pre-steady-state target cleavage rate
1 | UAGUGUUGUCACCUUCUCUGAGAGAUUAACA | 0.221 ± 0.014
2 | UAGUGACAGUGGAAGUCUGAGGAUUAACA | < 0.0001
3 | UAGUCUGUCACCUUCUCUCAGUGAUUAACA | 0.00622 ± 0.0035
4 | UAGUCUGUCACCUUCUCUGUGACAUUAACA | 0.0172 ± 0.005
5 | UAGUGUGUCACCUUGUCUGACAGAUUAACA | 0.0668 ± 0.012
6 | UAGUGACACACCUUCUCUGGAGAUUAACA | 0.00696 ± 0.004
7 | UAGUCUGACACCUUCUCUGAGAGAAUAACA | 0.0874 ± 0.018
8 | UAGUGACAGACCUUCUGUGAGAGAUUUACA | 0.0618 ± 0.022
9 | UAGUGACAGAGCUUCUCUGAGAGAUUUACA | 0.0241 ± 0.01
10 | UAGUGACAGUCCAUCUCUGAGAGAUUAUCA | 0.00419 ± 0.0024
11 | UAGUGACAGUUCUUCUCUGAGAGAUUAACA | 0.0485 ± 0.0046
12 | UAGUGACAGUCCUUCUCUGUGACAUUAACA | 0.00287 ± 0.0021
13 | UAGUGACUCACCUUCUCUCAGAGAUUAACA | 0.0464 ± 0.0037
14 | UAGUGACAGUGCUUCUGUGAGAGAUUAUCA | 0.00666 ± 0.0037
15 | UAGUCCGUCACCUUCUCUGAGAGAUUAACA | 0.228 ± 0.01
16 | UAGUGUGUCACCUUCACUGUGAGAUUAACA | 0.0373 ± 0.0044
17 | UAGUGACAGACCUUCUGUGAGAGAUUAACA | 0.087 ± 0.012
18 | UAGUGACACACCUUCUCUGAGAGACUUAACA | 0.118 ± 0.02
19 | UAGUGUGUCACCUCUCUGAGAGAUUAACA | 0.163 ± 0.016
20 | UAGUGAGUCUCCUUCUCUGAGAGUUUAACA | 0.105 ± 0.027
21 | UAGUGAGUCACCUUCUCUGAGAGAUUAGACA | 0.118 ± 0.034
22 | UAGUGACAGACCUUCUCUGAGACAUUAACA | 0.0292 ± 0.0045
23 | UAGUGUGUCACCUUCUCUCUGAGAUUAACA | 0.0138 ± 0.004
24 | UAGUGAGUCGACCUUCUCUGAGAGAUUAACA | 0.11 ± 0.011

Row | Sequence | pre-steady-state target cleavage rate
25 | UAGUCUGUCUGCUUCUCUGAGAGAUAUUGA | < 0.0001
26 | UAGUGAGACACCUUCUCUGAGAGAUUAAGA | 0.0264 ± 0.011
27 | UAGUGACAGUCCUUCUCUGAGACUUUAACA | < 0.0001
28 | UAGUGAGUCACCUUCUCUGAGAAGAUUAACA | 0.0726 ± 0.013
29 | UAGUGAGUCACCUUCUCUCAGAGAUUAACA | 0.0499 ± 0.0073
30 | UAGUCUUUCACCUUCUCUGAGAGAUUAACA | 0.116 ± 0.015
31 | UAGUGACAGUGCUUCUCAGAGAGAUUAUCA | 0.00319 ± 0.0031
32 | UAGUGACAGAGCUUCUCUGUGAGAUUAACA | 0.0194 ± 0.0071
33 | UAGUGAGUCAGCUUCUCUGACAGAUUAACA | 0.0266 ± 0.0058
34 | UAGUGUGUCACCUUCUCUGAGAGAUUUUCA | 0.119 ± 0.033
35 | UAGUGACUCACCUUCUCUGACAGAUUAAGA | 0.00634 ± 0.004
36 | UAGUGAGUCACCUUCUCUGAGAGAUUAAACA | 0.33 ± 0.049
37 | UAGUGAGUCACCUUCUCUCAGAGAUUUACA | 0.0192 ± 0.0098
38 | UAGUGUGUCACCUGUCUCUGAGAGAUUAACA | 0.175 ± 0.01
39 | UAGUGACAGACCUUCUCUGACAGAUUAACA | 0.0282 ± 0.0053
40 | UAGUCAGUCACCUUCUGUGAGAGAUUAACA | 0.187 ± 0.011
41 | UAGUGUGUCACCUUCUCUGAGAGAUUACA | 0.122 ± 0.036
42 | UAGUGACAGACCUUCUCGAGAGAUUAACA | 0.0146 ± 0.0074
43 | UAGUGACUCACCUUGUCAGAGAGAUUAACA | 0.038 ± 0.0074
44 | UAGUCUGUCACCUCUCUGAGAGAUUAACA | 0.208 ± 0.018
45 | UAGUGAGUCACCUUGUCUGAGAGAUUAAGA | 0.00881 ± 0.0052
46 | UAGUGACAGACCUUGUCUGUGAGAUUAACA | 0.0175 ± 0.0053
47 | UAGUGUGUCAUCUUCUCUGAGAGAUUAACA | 0.218 ± 0.019
48 | UAGUGACAGUCAUUCUCUGAGAGAUUAACA | 0.00865 ± 0.0029

Row | Sequence | pre-steady-state target cleavage rate
49 | UAGUGACAGUCCUUCUGUGAGAGAUUAACA | 0.0294 ± 0.0049
50 | UAGUGUGUCACCUUCUCUGAGAGGAUUAACA | 0.15 ± 0.02
51 | UAGUCUUGUCACCUUCUCUGAGAGAUUAACA | 0.341 ± 0.058
52 | UAGUGACACACCUUCUCUGAGAGAAUAACA | 0.115 ± 0.025
53 | UAGUGUGUGACCUUCUCUGAGAGAUUUACA | 0.0991 ± 0.02
54 | UAGUGAGUCACCUUCUCUCAGAGAUUAUCA | 0.0215 ± 0.0076
55 | UAGUCUGUCACCUUCUGUGAGAGAAUAACA | 0.0497 ± 0.011
56 | UAGUGACAGACCUACUCUGAGAGAUUAACA | 0.0514 ± 0.0077
57 | UAGUGACAGUCCUUCUCUGAGAGAUUAAGA | 0.0116 ± 0.0043
58 | UAGUGACUCACCUUCUCUAAGAGAUUAACA | 0.12 ± 0.0099
59 | UAGUGACACACCUUCUCUGUGACAUUAACA | 0.0382 ± 0.012
60 | UAGUGACUCACCUUCAGUGAGAGAUUAUGA | 0.0132 ± 0.0042
61 | UAGUCUGUGACCUUCUCUGAGACAUUAACA | 0.0192 ± 0.0031
62 | UAGUCUGUCACCAUCUCUGAGAGAUUAACA | 0.173 ± 0.011
63 | UAGUGACAGACCAUUCUCUGAGAGAUUAACA | 0.0891 ± 0.012
64 | UAGUGACACACCUUCUCUGAGAGAUUAAACA | 0.197 ± 0.03
65 | UAGUGAGUCACGUUCUCAGAGAGAUUAACA | 0.0819 ± 0.0088
66 | UAGUGACACACCGUUCUCUGAGAGAUUAACA | 0.0968 ± 0.0086
67 | UAGUCUGACACCUUCUCUGAGAGAUUAAGA | 0.0746 ± 0.011
68 | UAGUGACUCACCUUCUGCUGAGAGAUUAACA | 0.0116 ± 0.0041
69 | UAGUGAGUCACCUACUCUGAGAGAUUUACA | 0.164 ± 0.053
70 | UAGUCUGUCACCUUCUCUGAGAGAUCUAACA | 0.258 ± 0.054
71 | UAGUGUGUCACCAUCUCUGAGAGAUUAUCA | 0.128 ± 0.024
72 | UAGUGUGUCAACUUCUCUGAGAGAUUAACA | 0.15 ± 0.013
